PubChem BioAssay AID504339 (National Center for Advancing Translational Sciences (NCATS), 2011)
About 17,000 (4.4%) of roughly 390,000 compounds were called active. Inconclusive means that the source gave no clear call. Such entries were picked first, then a sample of the others. Calls come from the whole dose curve; as a rule, active = well fitted inhibition curve with a large enough effect; inconclusive = small, poorly fitted or top-dose-only effect; inactive = no such curve, though single readings can be large or run the other way. A potency beside an inconclusive call is a rough fit, not a confirmed value.

target: Lysine-specific demethylase 4A (Homo sapiens) (UniProt O75164); assay: qHTS Assay for Inhibitors of JMJD2A-Tudor Domain; conditions: AlphaScreen JMJD2A-Tudor / H3K4me3 peptide binding; series mostly up to 114 µM; note: nearly all actives have a fitted effect of over 50% in size
Potency is the fitted concentration of half-maximal effect; tags give direction and shape of the fitted curve.

Chain of UniProt O75164 (O75164 whole entry, looked up, the tested form may be a part): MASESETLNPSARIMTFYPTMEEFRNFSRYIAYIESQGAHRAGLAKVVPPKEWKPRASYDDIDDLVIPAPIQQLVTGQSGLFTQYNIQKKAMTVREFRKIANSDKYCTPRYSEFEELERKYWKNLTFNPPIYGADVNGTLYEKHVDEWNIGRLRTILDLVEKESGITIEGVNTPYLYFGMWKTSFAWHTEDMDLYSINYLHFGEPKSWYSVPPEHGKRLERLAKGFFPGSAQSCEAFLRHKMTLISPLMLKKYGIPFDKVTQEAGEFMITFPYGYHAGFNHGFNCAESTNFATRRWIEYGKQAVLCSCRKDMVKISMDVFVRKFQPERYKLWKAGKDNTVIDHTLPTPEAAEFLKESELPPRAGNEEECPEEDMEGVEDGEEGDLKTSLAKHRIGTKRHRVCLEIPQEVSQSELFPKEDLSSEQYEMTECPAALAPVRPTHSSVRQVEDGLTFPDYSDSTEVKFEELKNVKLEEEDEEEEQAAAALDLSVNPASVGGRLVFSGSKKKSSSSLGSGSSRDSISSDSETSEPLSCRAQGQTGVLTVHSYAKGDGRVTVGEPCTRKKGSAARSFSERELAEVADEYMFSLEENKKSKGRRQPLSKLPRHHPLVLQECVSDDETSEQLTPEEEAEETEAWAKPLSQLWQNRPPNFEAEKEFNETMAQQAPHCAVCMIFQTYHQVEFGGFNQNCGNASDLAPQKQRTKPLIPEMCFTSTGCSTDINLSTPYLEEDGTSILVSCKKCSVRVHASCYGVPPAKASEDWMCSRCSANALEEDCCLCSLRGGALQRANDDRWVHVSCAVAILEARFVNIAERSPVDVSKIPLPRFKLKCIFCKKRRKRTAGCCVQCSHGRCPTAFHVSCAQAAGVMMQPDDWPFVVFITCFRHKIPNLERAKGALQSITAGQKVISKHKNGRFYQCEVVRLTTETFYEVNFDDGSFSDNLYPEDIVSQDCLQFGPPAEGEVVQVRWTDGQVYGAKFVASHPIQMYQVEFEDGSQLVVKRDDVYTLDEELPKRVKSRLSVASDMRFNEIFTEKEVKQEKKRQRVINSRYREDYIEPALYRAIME

Structure (SMILES)	Potency
O=C1c2ccccc2-c2onc3c(N4CCN(C5CCCCC5)CC4)cc(NCCO)c1c23	inconclusive: 50.1 µM [inhibitor, partial curve, poor fit]
O=C(NC1CCCCC1)C(c1ccncc1)N(Cc1ccccc1)C(=O)c1ccc(-c2ccccc2)[nH]1 (stereo not drawn)	inconclusive: 35.5 µM [inhibitor, partial curve]
O=C1CCCC2=C1C(c1ccco1)Nc1ccc3ccccc3c12 (stereo not drawn)	active: 39.8 µM
CC1CCC/C(=C\Nc2ccc(O)cc2)C1=O (stereo not drawn)	active: 79.4 µM
O=C(CN1C(=O)NC2(CCCc3ccccc32)C1=O)NCC(F)(F)F (stereo not drawn)	inconclusive: 0.708 µM [inhibitor, full curve, poor fit]
O=C1C(=O)N(CCOCCO)C(c2ccccn2)/C1=C(\O)c1ccccc1 (stereo not drawn)	inconclusive: 44.7 µM [inhibitor, partial curve]
Cc1cc(Nc2ccc(Cl)cc2)n2ncnc2n1	inactive
O=C(Nc1ncccc1O)c1ccc(S(=O)(=O)N2CCCC2)cc1	inconclusive: 31.6 µM [inhibitor, single point]
Cc1cccc(-c2cc3c(N=O)c4ccccc4c-3n[nH]2)c1	inconclusive: 22.4 µM [inhibitor, full curve]
C=CCn1c(C(CCCC)CC(C)O)n[nH]c1=S (stereo not drawn)	inconclusive: 39.8 µM [inhibitor, single point]
CCNc1ccc(S(=O)(=O)N(C)C)cc1NCC(=O)Nc1ccc(Br)cc1F	inconclusive: 35.5 µM [inhibitor, partial curve]
CCn1cc(CN2CCc3c([nH]c4ccccc34)C2c2cccc(OC)c2OC)c(C)n1 (stereo not drawn)	inconclusive: 25.1 µM [inhibitor, partial curve]
CC(C)c1nc(NCCO)c2nnn(Cc3ccccc3)c2n1	inactive
COc1ccc(N/C=C(\[N+](=O)[O-])S(=O)(=O)c2ccccc2)cc1	inconclusive: 25.1 µM [inhibitor, full curve]
O=[N+]([O-])c1cccc(C2CC(c3ccccc3)=NN2c2ccccc2)c1 (stereo not drawn)	active: 28.2 µM
COc1ccc(C(=O)N/N=C(\C)Cn2cnc([N+](=O)[O-])n2)cc1	inconclusive: 28.2 µM [inhibitor, partial curve]
Cc1cccc2nc(-c3cccc(NC(=O)Cc4ccccc4)c3)cn12	inconclusive: 70.8 µM [inhibitor, single point]
COc1cc(-c2nnc(Sc3ccc(C(F)(F)F)cc3[N+](=O)[O-])o2)cc(OC)c1OC	inconclusive: 11.2 µM [inhibitor, full curve]
